The whole screen tested about 310,000 compounds, of which about 2,200 (0.71%) showed an effect of 50% or more. The effect is printed as a negative number. The list shows a part of the results.
Molecular target: human ether-à-go-go-related gene (hERG) potassium channel (human, UniProt Q12809)
Assay: primary screen, population patch clamp on CHO cells stably expressing hERG

Sequence of human ether-à-go-go-related gene (hERG) potassium channel (Q12809 whole entry, looked up): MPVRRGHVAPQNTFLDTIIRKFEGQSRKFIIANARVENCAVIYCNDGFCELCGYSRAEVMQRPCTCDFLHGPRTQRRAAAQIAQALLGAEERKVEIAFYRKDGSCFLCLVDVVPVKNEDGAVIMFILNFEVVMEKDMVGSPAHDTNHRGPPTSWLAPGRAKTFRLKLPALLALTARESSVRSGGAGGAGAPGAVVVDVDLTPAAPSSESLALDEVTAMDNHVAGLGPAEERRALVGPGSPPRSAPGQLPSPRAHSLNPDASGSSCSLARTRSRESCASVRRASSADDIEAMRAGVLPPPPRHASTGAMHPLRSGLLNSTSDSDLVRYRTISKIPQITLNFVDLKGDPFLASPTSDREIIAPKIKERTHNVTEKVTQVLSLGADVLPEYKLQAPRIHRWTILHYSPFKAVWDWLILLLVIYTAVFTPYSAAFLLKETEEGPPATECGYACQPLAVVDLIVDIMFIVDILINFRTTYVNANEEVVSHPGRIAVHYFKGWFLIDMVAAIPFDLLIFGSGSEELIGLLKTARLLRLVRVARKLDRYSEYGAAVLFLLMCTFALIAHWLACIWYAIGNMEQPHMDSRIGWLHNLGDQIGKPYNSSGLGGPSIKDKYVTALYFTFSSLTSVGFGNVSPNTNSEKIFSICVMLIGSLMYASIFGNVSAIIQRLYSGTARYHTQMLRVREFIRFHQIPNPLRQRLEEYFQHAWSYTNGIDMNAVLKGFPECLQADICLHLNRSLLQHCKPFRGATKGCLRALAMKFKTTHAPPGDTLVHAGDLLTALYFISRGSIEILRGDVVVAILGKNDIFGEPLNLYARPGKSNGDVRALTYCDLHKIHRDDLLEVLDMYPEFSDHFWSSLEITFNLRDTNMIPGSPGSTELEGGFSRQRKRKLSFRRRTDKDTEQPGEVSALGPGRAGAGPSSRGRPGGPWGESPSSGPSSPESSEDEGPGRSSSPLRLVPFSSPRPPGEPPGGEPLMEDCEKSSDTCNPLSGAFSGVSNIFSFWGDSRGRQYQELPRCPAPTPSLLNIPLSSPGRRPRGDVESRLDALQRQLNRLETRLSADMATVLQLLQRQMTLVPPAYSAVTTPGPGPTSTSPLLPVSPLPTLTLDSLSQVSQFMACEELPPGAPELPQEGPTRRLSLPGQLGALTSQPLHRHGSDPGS

Row | SMILES | hERG current change (%, negative = inhibition) at 1uM
1 | C/C(CC(=O)NCCc1ccccc1)=N\NC(=O)COc1ccc(Br)cc1 | 6.95%
2 | CC(CCc1ccccc1)NC(=O)c1cccc([N+](=O)[O-])c1 (stereo not shown) | 10.5%
3 | Cc1ccc(/C=C/C(=O)O)cc1S(=O)(=O)N1CCCc2ccccc21 | 11.7%
4 | CCOC(=O)c1cnc2c(cnn2C)c1NCCCN(C)C | -13.5%
5 | CCN(CC)C(=O)CSc1nnc(C2CCCCC2)o1 | 11.4%
6 | CCc1noc(C)c1C(=O)Nc1nc(-c2ccccc2)c(C(C)=O)s1 | -4.03%
7 | Cn1nnc2cc(NC(=O)N3CCN(c4ccccn4)CC3)ccc21 | 1.73%
8 | C1=CC(Cc2cncs2)c2ccccc21 (stereo not shown) | 3.45%
9 | Cc1ccc(OCC(O)CNC2CCCC2)c(C)c1.Cl (stereo not shown) | 21.1%
10 | COc1ccc(NC(=O)CSc2nccn2C)cc1S(N)(=O)=O | 1.63%
11 | C=CCn1c(C)cc(C(=O)COc2nncc3ccccc23)c1C | 18.9%
12 | O=C(O)c1c(-c2ccccc2)oc2ccc(O)cc12 | 12%
13 | COc1cccc(C(=O)N2CCC(CCC(=O)Nc3cccc(C)c3)CC2)c1 | -5.87%
14 | CCOc1ccccc1N1CCN(CC(=O)NCCc2ccc(S(N)(=O)=O)cc2)CC1 | 5.35%
15 | CSc1nc2c(c(=O)n1-c1ccc(C)cc1)SCC2 | 9.39%
16 | CC(C)N1CCN(Cc2ccsc2)CC1CCO (stereo not shown) | 5.73%
17 | CCOC(=O)c1c(NC(=O)COC)sc(C(C)=O)c1C | 13.5%
18 | CCN(CC)C(=O)c1ccccc1NC(=O)CN1C(=O)c2ccccc2S1(=O)=O | 13.2%
19 | CCCSc1ccc([C@@H]2[C@H]3C(=O)N(CC)C(=O)[C@H]3[C@]3(C(=O)OC)CCCCN23)cc1OC.O=C(O)C(F)(F)F | 13.7%
20 | O=C(CSc1nnc(-c2ccccc2)n1Cc1ccco1)Nc1ccc(S(=O)(=O)N2CCCC2)cc1 | 5.39%
21 | CCN(CC)c1nc(-c2cccc(OC)c2O)nc2ccccc12 | 18.3%
22 | Cc1cc(C)n2nc(SC3CCCCN(C(=O)c4ccc(F)cc4)C3=O)nc2n1 (stereo not shown) | 0.703%

Row | SMILES | hERG current change (%, negative = inhibition) at 1uM
23 | COCC(C)OC(=O)c1c(N)n(Cc2ccco2)c2nc3ccccc3nc12 (stereo not shown) | -3.57%
24 | CCCNC(=O)N(CCOC)CC1CCCN(C2Cc3ccccc3C2)C1 (stereo not shown) | -1.59%
25 | Clc1ccc(CN2CCCCCCC2)cc1Cl | 9.18%
26 | COc1ccc(/C=C/CN2CCC(n3nccc3NC(=O)C3CC3)CC2)cc1 | -59.6%
27 | O=C(NCc1nc2ccccc2[nH]1)C1=C[C@H](c2ccc(Br)cc2)C[C@H](OCc2ccc(CO)cc2)O1 | 17.9%
28 | CCC(=O)Nc1ccc(C(=O)Nc2cc(C)on2)cc1 | -8.48%
29 | COc1ccc(N(CC(=O)Nc2cccc(N(C)S(C)(=O)=O)c2)S(=O)(=O)c2ccc(F)cc2)cc1 | 15.5%
30 | COc1ccc(-c2cc(Nc3ccccc3NC(=O)C(F)(F)F)n(CCC#N)n2)cc1 | 5.4%
31 | O=C(c1ccc(F)cc1)N1CCN(c2cnn(-c3ccccc3)c(=O)c2Cl)CC1 | -12.2%
32 | O=C(CN1C(=O)c2cccc3cccc1c23)Nc1ccccc1 | 3.92%
33 | O=C(/C=C1\SC(=O)NC1=O)Nc1ccc(F)cc1 | 6.55%
34 | O=C(c1cnn2c(C(F)(F)F)cc(-c3cccs3)nc12)N1CCN(C(c2ccccc2)c2ccccc2)CC1 | 13.4%
35 | CN(C)CC(C)(C)CNC(=O)CC1C(=O)NCCN1Cc1ccc(-c2ccccc2)cc1 (stereo not shown) | 3.88%
36 | COc1ccc(C2=NN(C(=O)CN3CCCCC3)C(c3ccc(OC)cc3)C2)cc1 (stereo not shown) | -8.18%
37 | CS(=O)(=O)N(CC(=O)N1CCN(c2ccccc2)CC1)c1ccc(Cl)c(C(F)(F)F)c1 | 18.9%
38 | Nc1c(C(=O)Nc2ccccc2)sc2nc(-c3cccnc3)ccc12 | 5.13%
39 | CCOC(=O)c1c(-c2ccccc2)csc1NC(=S)NC(=O)c1ccccc1 | 24.5%
40 | CCOC(=O)CSC1=Nc2ccccc2C2=NC(CC(=O)NCc3cccs3)C(=O)N12 (stereo not shown) | -1.83%
41 | COCc1cc(=O)[nH]c2cc(NC(=O)C(F)(F)F)c(C)cc12 | 5.36%
42 | COc1ccc(C(=O)COC(=O)CCNS(=O)(=O)c2ccc(NC(C)=O)cc2)c(OC)c1 | 6.37%
43 | CC(C)NC(=O)NC(=O)CSc1ccc(S(=O)(=O)N2CCCC2)cn1 | -1.38%
